The whole screen tested about 310,000 compounds, of which about 2,200 (0.71%) showed an effect of 50% or more. Effects have a minus sign here. Some of the results follow. *1 amine or outer side, *2 acyl side, *3 side chain or, on linkers, in order; H or OH if unused. Where a SMILES comes first, the peptide text is derived from it. Bridges are numbered along the chain shown (N, C = ends). [ ]: non-standard residue; d: D form. The star is where a group is joined. ξ: configuration not given here. hSer(Ph(2-I,4-NO2,6-CO)) = O=C([C@H](CCOc1c(I)cc([N+](=O)[O-])cc1C(=O)[*:3])N[*:1])[*:2]; ξD = NC(CC(=O)O)C(=O)O; Boc = CC(C)(C)OC(=O)*
The molecules below were run against human ether-à-go-go-related gene (hERG) potassium channel (human, UniProt Q12809) (assay: primary screen, population patch clamp on CHO cells stably expressing hERG).
Chain of human ether-à-go-go-related gene (hERG) potassium channel (Q12809 whole entry, looked up): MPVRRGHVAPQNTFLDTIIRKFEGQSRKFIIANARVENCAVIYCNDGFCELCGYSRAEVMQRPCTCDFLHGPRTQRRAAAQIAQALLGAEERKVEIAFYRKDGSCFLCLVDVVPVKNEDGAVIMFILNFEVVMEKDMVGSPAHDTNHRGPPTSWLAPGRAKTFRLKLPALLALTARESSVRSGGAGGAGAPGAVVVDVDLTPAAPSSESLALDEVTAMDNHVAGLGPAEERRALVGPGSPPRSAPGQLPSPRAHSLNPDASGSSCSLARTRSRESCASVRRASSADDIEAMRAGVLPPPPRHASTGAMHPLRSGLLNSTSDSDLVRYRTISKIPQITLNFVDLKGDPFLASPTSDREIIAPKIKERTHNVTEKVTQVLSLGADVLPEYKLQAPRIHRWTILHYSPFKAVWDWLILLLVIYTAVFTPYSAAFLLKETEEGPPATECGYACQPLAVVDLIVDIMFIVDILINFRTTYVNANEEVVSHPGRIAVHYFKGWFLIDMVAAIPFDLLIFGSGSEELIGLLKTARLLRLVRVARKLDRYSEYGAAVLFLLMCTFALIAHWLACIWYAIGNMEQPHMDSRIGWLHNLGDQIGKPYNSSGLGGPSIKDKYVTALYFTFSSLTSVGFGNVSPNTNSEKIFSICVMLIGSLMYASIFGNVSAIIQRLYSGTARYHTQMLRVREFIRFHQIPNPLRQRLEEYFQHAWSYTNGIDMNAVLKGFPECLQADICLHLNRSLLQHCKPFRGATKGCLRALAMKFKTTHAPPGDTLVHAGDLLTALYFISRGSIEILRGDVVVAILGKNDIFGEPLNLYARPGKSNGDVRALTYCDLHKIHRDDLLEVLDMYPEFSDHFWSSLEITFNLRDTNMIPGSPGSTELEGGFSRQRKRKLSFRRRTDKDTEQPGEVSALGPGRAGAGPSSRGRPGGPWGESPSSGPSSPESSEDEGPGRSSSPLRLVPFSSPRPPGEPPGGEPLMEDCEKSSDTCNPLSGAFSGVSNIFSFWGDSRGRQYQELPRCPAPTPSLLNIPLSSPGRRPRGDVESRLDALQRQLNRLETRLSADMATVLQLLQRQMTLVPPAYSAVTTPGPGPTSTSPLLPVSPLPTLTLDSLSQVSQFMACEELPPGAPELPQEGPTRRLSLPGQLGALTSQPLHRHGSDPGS

SMILES | hERG current change (%, negative = inhibition) at 1uM [%]
COc1cc(C(=O)NCCCc2nc3ccccc3n2Cc2cc(C)ccc2C)cc(OC)c1OC | 0.547
CCCCn1c(=NC(=O)c2ccco2)c(C(=O)OCC)cc2c(=O)n3ccccc3nc21 | -44.1
C=CCSC1=NC(=O)/C(=C/c2cccs2)S1 | 7.27
O=C(CNC(=O)c1cccs1)N/N=C/c1ccccc1[N+](=O)[O-] | 10.2
O=C(NCCc1nc(-c2ccccc2)cs1)c1ccc(Br)cc1 | 1.38
CC(C)(C)OC(=O)NC(Cc1ccccc1)C(=O)N1CCCC1C(=O)O (stereo not drawn) (Boc-Phe-Pro-OH; configuration not given here) | 12.6
CCN1C(=O)C(=Cc2cc(C)n(C3CC3)c2C)C(=O)N(CC)C1=S | 10.9
COc1ccc(CNC(=O)COc2ccccc2C(=O)c2cnn(-c3ccccc3)c2)cc1OC | -1.17
COc1ccc(CCNC(=O)[C@@H](NC(N)=O)C(C)C)cc1 | 11.4
Cc1cc(C)cc(NCc2ccncc2)c1 | 0.827
O=C1COc2ccc(C(=O)COC(=O)Cn3cnc4ccccc43)cc2N1 | 2.28
Cn1c(=O)oc2cc(S(=O)(=O)NCCC(=O)NCc3ccc(F)cc3)ccc21 | 10.6
CCCCc1nn(-c2cc(Cl)ccc2OC)c2c1C(=O)CCC2 | 12.2
COc1ccc2cc3cc(C(=O)N(C)C4CCCCC4)oc3nc2c1 | 16.1
CCOc1ccccc1/C=C(/NC(=O)c1ccccc1)C(=O)NCC(=O)O | 6.66
COCCNC(=O)CSc1c2c(nc3ccc(Cl)cc13)CCCC2 | 5.17
CCOC(=O)C1=C(O)/C(=C\c2cc(C)n(-c3ccccc3F)c2C)N=C1C | 16.6
O=C(COC(=O)Cc1n[nH]c(=O)c2ccccc12)Nc1cccc(C(F)(F)F)c1 | 4.01
CCC1CCCCN1C(=O)CSc1nnc(CNC(=O)c2c(F)cccc2Cl)o1 (stereo not shown) | 19.8
Cc1ccc(-c2[nH]ncc2/C=N/n2c(C)nc3ccccc3c2=O)cc1 | 15.2
CCCCNC(=S)N/N=C/c1cccc(OCC)c1O | 9.58
COc1ccc(C(CNC(=O)C(=O)Nc2ccc3c(c2)OCCO3)N2CCN(C)CC2)cc1 (stereo not shown) | -5.01

SMILES | hERG current change (%, negative = inhibition) at 1uM [%]
CCOc1ccc(S(=O)(=O)N/N=C(\C)c2ccc(OC)cc2OC)cc1 | -1.53
CSCCC(NC(=O)OC(C)(C)C)C(=O)Oc1ccc2c(=O)c(-c3ccc4c(c3)OCCO4)coc2c1 (stereo not shown) | 4.95
CC1=NN(C(=O)c2ccccc2Br)C(O)(c2ccc(Cl)cc2)C1 (stereo not shown) | 16.7
O=C1CC(C(=O)Nc2nccs2)C(c2ccccc2)O1 (stereo not shown) | -5.28
CCc1nnc(NC(=O)C2CC(=O)N(CCc3ccccc3)C2)s1 (stereo not shown) | 15.1
CC(=O)c1cc(Cl)ccc1OCC(=O)Nc1cccc(S(=O)(=O)N2CCCC2)c1 | 13
CCOc1ccc(NC(=S)Nc2cccnc2)cc1 | 11.4
CC(=O)N(c1ccccc1)c1c(F)c(F)c(F)c(F)c1F | 10.7
COc1ccc(/C=C2/N=C(SC3CCOC3=O)N(c3cccc(OC)c3)C2=O)cc1 (stereo not shown) | 4.83
CCOc1ccc(-n2nc(C(=O)NCCOC)c3ccccc3c2=O)cc1 | 8.4
COc1ccc(-c2cc(C(F)(F)F)n3nc(C(=O)N4CCN5CCCC5C4)cc3n2)cc1OC (stereo not shown) | -16.6
CC(=O)Nc1ccccc1NC(=O)C/C(C)=N/NC(=O)Cc1cccc2ccccc12 | 15.3
Cc1ccc(NC(=O)c2ccccn2)cc1S(=O)(=O)N1CCOCC1 | 9.45
N#Cc1cnc(Nc2ccc(F)cc2)nc1N | 9.95
Cc1ccnc(N/N=C/c2ccccc2)n1 | 3.1
CC(=O)Nc1ccc(NC(=O)Cn2nc([N+](=O)[O-])c(Br)c2C)cc1 | 9.63
COc1ccc(CNC(=O)OCCN2CCN(S(=O)(=O)c3ccc(C)cc3)CCC2=O)cc1 | -14.6
CCOC(=O)C1(CC)NC(c2ccco2)C2C(=O)N(CC)C(=O)C21 (stereo not shown) | 11.9
CCCc1cc(=O)n(-c2nc3ccccc3s2)[nH]1 | 8.94
CN(Cc1ccccc1)c1ccc(N2C(=O)CCCC2=O)cc1[N+](=O)[O-] | 13.4
O=C(O)c1cc2c(N3CCC(Cc4ccccc4)CC3)ncnc2s1 | 25.2
Oc1cc(Cc2ccccc2)cnc1CN1CCOCC1 | -4.67

SMILES | hERG current change (%, negative = inhibition) at 1uM [%]
CCOc1ccccc1NC(=O)Nc1ccsc1C(=O)OC | 1.64
O=C(NC(Nc1ncccn1)C(=O)c1ccccc1)c1ccccc1 (stereo not shown) | -6.91
CCCN=Cc1c(CCC)[nH]n(-c2nc3ccccc3s2)c1=O | -4.61
COc1cc(-c2nc3cnccn3c2NC(C)(C)CC(C)(C)C)ccc1O | 17.3
O=c1ccnc(Sc2ncccc2[N+](=O)[O-])[nH]1 | 0.974
CC(OC(=O)C1CCN(c2ccc(C(F)(F)F)cn2)CC1)C(=O)Nc1cccc([N+](=O)[O-])c1 (stereo not shown) | 5.99
CC[C@@]1(O)C(=O)OCc2c1cc1n(c2=O)Cc2cc3c(CN(C)C)c(O)ccc3nc2-1.Cl | 13.4
CCCCC(=O)OCc1c(-c2cccc(OC)c2)ncc2ccccc12 | 13.9
COc1ccc(C(=O)CSc2[nH]c(=O)cc(C(F)(F)F)c2C#N)cc1 | 14
Cn1ncc(C#N)c1NC(=O)C1CC(c2ccccc2Cl)=NO1 (stereo not shown) | 6.25
COCCN(C(=O)COC(=O)CSc1ccc2ccccc2c1)c1c(N)n(Cc2ccccc2)c(=O)[nH]c1=O | 14
C/C(=N\Nc1ccc(C(=O)O)cc1)c1nc2ccccc2n1C | 12.8
Cc1cc(S(=O)(=O)N2CCOCC2)ccc1OCC(=O)Nc1ccccc1F | 13.2
O=C(/C=C/c1ccccc1)NCc1ccco1 | 0.0536
O=C(COC(=O)c1cccc(OC(F)F)c1)NC1CCCC1 | 2.26
CCOc1ccccc1NC(=O)CSc1nc2c(c(=O)n(C)c(=O)n2C)n1C | 13.8
COC(=O)Cc1c(C)c2ccc(O)c(CN3CCCC(C)C3)c2oc1=O (stereo not shown) | 14.4
CCc1cc(C(=O)OCC(=O)N2CCC(c3ccccc3)=N2)sc1C | 4.99
C/C(=N\OCC(=O)OCC(=O)N(Cc1ccccc1)C(C)(C)C)c1ccc2c(c1)OCO2 | 6.83
C[C@@H]1NC(=O)c2cc([N+](=O)[O-])cc(I)c2OCC[C@@H](C(=O)NC(CC(=O)O)C(N)=O)NC(=O)[C@H](CC(N)=O)NC1=O (stereo partly shown) (AN[hSer(Ph(2-I,4-NO2,6-CO))][ξD]-NH2; lactam N-3) | 16.7
Cc1ccc(C(=O)O/N=C2\CC3CCC2(C)C3(C)C)cc1 (stereo not shown) | 1.9
CCCOC(=O)c1ccc(Cl)c(NC(=O)c2ccc(-c3ccccc3)cc2)c1 | 10.4

SMILES | hERG current change (%, negative = inhibition) at 1uM [%]
Cc1ccccc1CNS(=O)(=O)c1ccc2c(c1)OCCO2 | -8.36
Fc1cc(F)cc(Nc2nc(Cl)nc(NC3CCCC3)n2)c1 | 13.7
CC(C)Sc1nnc(NC(=O)C2CC2)s1 | 2.1
O=C(COC(=O)c1ccccc1C(=O)OCC(=O)NCCc1c[nH]c2ccccc12)NCCc1c[nH]c2ccccc12 | 9.99
C=C1CCC2C(C)(C)[C@H](O)CC[C@@]2(C)[C@@H]1COc1cc(=O)oc2ccccc12 (stereo partly shown) | 8.76
O=C(Nc1ccccn1)C1(c2ccccc2)CCCC1 | 4.41
Cn1c(=O)[nH]c(=O)c2c1nc([N+](=O)[O-])n2Cc1ccccc1 | 10
Clc1ccccc1CSc1snnc1-c1ccccc1 | 0.114
C=CCn1c(=S)[nH]c2nc3c(cc2c1=O)CCCC3 | 6.09
N#CNC(=Nc1ccc(F)cc1)SCc1ccccc1 | 5.9
CC1CCCN(C(=O)CSc2nnc(-c3ccc(O)cc3)o2)C1 (stereo not shown) | 19.6
CC12CCC(c3nnc(SCC(=O)Nc4cccc5ccccc45)nc31)C2(C)C (stereo not shown) | 9.45
COc1ccc(C(=O)Nc2ccc(S(=O)(=O)N3CCN(C)CC3)cc2)cc1[N+](=O)[O-] | 11.2
CCC(C)NC(=O)C1CCC(CNS(=O)(=O)c2cccc3nsnc23)CC1 (stereo not shown) | 9.46
O=C(NC1CCCCC1)C(c1ccco1)N(C(=O)C(F)(F)F)C1CC1 (stereo not shown) | 6.61
COc1cccc(CNC(=O)CCC2CCCN(C(=O)C3=CC(=O)CC(C)(C)O3)C2)c1 (stereo not shown) | 16
CCN(C(=O)CSc1nnc(-c2ccc3c(c2)OCO3)o1)C1CCS(=O)(=O)C1 (stereo not shown) | 14
CCCC(=O)C1C(=O)CC(C)(C)C(c2cc(C)no2)C1=O (stereo not shown) | 9.24
COc1ccccc1NC(=O)CSc1nc2[nH]ncc2c(=O)[nH]1 | 11.5

From PMC4336329 (PLoS ONE, 2015)
